Paper PMC4336329 (PLoS ONE, 2015)
The campaign covered roughly 310,000 compounds. About 2,200 (0.71%) showed an effect of 50% or more. The effect is printed as a negative number. This is one part of the list.

Each molecule was assayed against human ether-à-go-go-related gene (hERG) potassium channel (human, UniProt Q12809) (assay: primary screen, population patch clamp on CHO cells stably expressing hERG).
human ether-à-go-go-related gene (hERG) potassium channel, sequence (Q12809 whole entry, looked up): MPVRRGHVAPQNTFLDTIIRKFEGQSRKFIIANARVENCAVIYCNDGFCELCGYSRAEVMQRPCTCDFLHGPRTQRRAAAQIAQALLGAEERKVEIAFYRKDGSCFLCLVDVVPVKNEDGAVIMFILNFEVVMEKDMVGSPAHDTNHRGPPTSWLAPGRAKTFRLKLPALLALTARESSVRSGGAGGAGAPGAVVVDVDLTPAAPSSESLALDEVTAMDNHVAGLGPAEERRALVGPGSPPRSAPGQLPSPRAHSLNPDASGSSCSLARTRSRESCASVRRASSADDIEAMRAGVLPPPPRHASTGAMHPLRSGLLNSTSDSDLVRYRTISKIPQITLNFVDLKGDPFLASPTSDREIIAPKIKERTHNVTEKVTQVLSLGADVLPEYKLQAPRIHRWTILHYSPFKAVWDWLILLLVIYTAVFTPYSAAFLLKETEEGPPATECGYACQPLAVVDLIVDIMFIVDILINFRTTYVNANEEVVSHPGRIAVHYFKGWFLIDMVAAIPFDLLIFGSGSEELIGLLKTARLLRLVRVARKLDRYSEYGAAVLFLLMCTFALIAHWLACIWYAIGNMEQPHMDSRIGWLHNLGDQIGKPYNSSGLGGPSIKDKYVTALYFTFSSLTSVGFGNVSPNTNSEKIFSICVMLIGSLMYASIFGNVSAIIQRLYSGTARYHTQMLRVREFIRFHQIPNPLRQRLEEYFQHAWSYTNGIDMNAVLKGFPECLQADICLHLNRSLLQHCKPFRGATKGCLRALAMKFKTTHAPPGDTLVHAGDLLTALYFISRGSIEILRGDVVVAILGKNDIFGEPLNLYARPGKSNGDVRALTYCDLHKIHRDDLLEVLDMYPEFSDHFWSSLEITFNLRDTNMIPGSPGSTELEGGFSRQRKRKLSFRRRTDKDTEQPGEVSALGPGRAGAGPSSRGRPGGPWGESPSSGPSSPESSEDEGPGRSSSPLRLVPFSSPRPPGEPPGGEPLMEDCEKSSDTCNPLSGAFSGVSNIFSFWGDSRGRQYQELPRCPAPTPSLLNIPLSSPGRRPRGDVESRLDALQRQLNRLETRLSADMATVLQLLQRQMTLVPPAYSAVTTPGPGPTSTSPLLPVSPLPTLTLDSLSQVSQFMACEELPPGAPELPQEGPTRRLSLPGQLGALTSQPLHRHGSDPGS

Row | Compound | hERG current change (%, negative = inhibition) at 1uM [%]
1 | NC(=S)NNC(=O)Nc1ccc(Cl)c(Cl)c1 | 17.3
2 | Cn1cc(S(=O)(=O)NCc2ccc(Cl)cc2)c(=O)n(C)c1=O | 9.74
3 | Cc1cc(OCc2cc(C(=O)N(C)CC3CCOCC3)no2)cc(C)c1Cl | 7.55
4 | O=C(COC(=O)c1ncc(Cl)c(Cl)c1Cl)NCc1cccs1 | 13.6
5 | c1ccc(NC2=NCCN2CC2CCCC2)cc1 | 8.38
6 | Brc1ccccc1CNCCc1ccc2c(c1)OCO2 | 15.4
7 | Cc1ccc2nc(C)c3c(c2c1)N(c1ccc(F)cc1)CC3 | -94.5
8 | C[C@@]12CCC=C[C@H]1[C@H](c1ccc(F)c(/C=C/c3ccccc3)c1)N(Cc1ccccc1)C2=O | 7.38
9 | COc1ccc(-c2csc3ncn(CC(=O)N4CCOCC4)c(=O)c23)cc1 | 5.14
10 | FC(F)(F)c1cc(-c2cccs2)nc(-n2cc(Br)cn2)n1 | -2.22
11 | CCCCCC(=O)c1c(C)[nH]c(C(=O)OCC)c1C | 11.6
12 | NS(=O)(=O)c1ccc(NC(=S)NC(=O)c2ccc3c(c2)OCO3)cc1 | 20.9
13 | O=C(COc1ccccc1-c1ccccc1)NCc1cccc(Cl)c1 | 9.39
14 | CC(OC(=O)c1ccc2c(=O)n3c(nc2c1)CCCCC3)C(N)=O (stereo not shown) | 16.1
15 | CCOC(=O)N1CCC(NC(=O)c2ccc3c(c2)N(C)CCS3)CC1 | -0.639
16 | Cc1onc(-c2c(F)cccc2Cl)c1C(=O)N1C=CC(C(F)(F)F)=NCC1 | 12.6
17 | Nc1nnc(SCC(=O)Nc2ccc(N3CCOCC3)c(Cl)c2)s1 | 4.97
18 | CCNC(=S)N1CCN(S(=O)(=O)c2ccc(C)c(C)c2)CC1 | 2.8
19 | O=C(NCc1ccc2c(c1)OCO2)C1CCC(CNS(=O)(=O)c2cccc3nsnc23)CC1 (stereo not shown) | 8.69
20 | CC(=O)N1CCc2cc(Br)cc(S(=O)(=O)NCCN3CCCCC3C)c21 (stereo not shown) | 3.07

Row | Compound | hERG current change (%, negative = inhibition) at 1uM [%]
21 | COc1ccc(-n2c(SCC(=O)NCc3cccs3)nc3[nH]ncc3c2=O)cc1 | -7.44
22 | Cn1c(Cn2cnc3ccccc32)nnc1SCc1ccccc1 | 0.708
23 | O=C(O)CNC(=O)/C(=C\c1ccc2c(c1)OCO2)NC(=O)c1ccc(Br)cc1 | 7.12
24 | Cc1ccc(S(=O)(=O)N2CCC(C(=O)N[C@@H](C)C(=O)NC3CCCCC3)CC2)cc1 | 8.93
25 | COc1ccc(C(=S)N2CCOCC2)cc1OC(=O)c1ccccc1Cl | 17.4
26 | CC(=O)c1cccc(N(C(=O)c2ccco2)C(C(=O)NC2CCCC2)c2ccncc2)c1 (stereo not shown) | 2.4
27 | O=C(c1ccccc1)c1cn(CC(=O)N2CCOCC2)c2ccccc12 | 7.17
28 | Cc1cccc(-n2c(C)nc3ccccc3c2=O)n1 | -0.868
29 | CC(C)CC(=O)N(Cc1ccc(F)cc1)C1CCS(=O)(=O)C1 (stereo not shown) | 15.7
30 | CC(=O)c1ccc(N2Cc3ccccc3C2)cc1 | 8.02
31 | Cn1c(=O)cc(SCC(=O)Nc2ccc3c(c2)OCO3)c2ccccc21 | 14.7
32 | O=C1CCC(=O)N1c1ccc(CSc2nc3ccccc3[nH]2)cc1 | 5.47
33 | COc1ccc(C(=O)NNC2=CC(=O)CC(C)(C)C2)cc1OC | 8.4
34 | O=C(O)CC1SC(=O)NC1=O (stereo not shown) | 8.82
35 | CCOC(=O)C(C)C1(O)c2ccccc2-c2ncccc21 (stereo not shown) | -1.12
36 | Cc1ccc(SCCOCCN2CCOCC2)cc1.Cl | 16
37 | CC(Oc1ccccc1F)C(=O)Nc1ccc2ccccc2c1 (stereo not shown) | 6.35
38 | NNC(=O)C1CC(O)CN1S(=O)(=O)c1ccc(Cl)cc1 (stereo not shown) | 6.56
39 | Cc1ccc(-n2nc3ccc(N)cc3n2)cc1 | 2.75
40 | Cc1ccc(C)c(N2CCN(C(=O)C3CCCN(S(=O)(=O)c4c(C)[nH]c(=O)[nH]c4=O)C3)CC2)c1 (stereo not shown) | 9.86

Row | Compound | hERG current change (%, negative = inhibition) at 1uM [%]
41 | Cc1ccc(-c2csc(CC(N)=O)n2)cc1 | 5.33
42 | COC(=O)CC1C(=O)NCCN1C(=O)c1ccc(Cl)cc1 (stereo not shown) | 8.55
43 | CSc1nnc(C)c(/C=C/Nc2ccc(F)cc2F)n1 | 7.44
44 | O=C(NCc1ccccn1)c1ccc(Cl)cc1Cl | 2.43
45 | Cc1nn(-c2ccccc2)c(C)c1/C=N/NC(=O)c1cc(C23CC4CC(CC(C4)C2)C3)[nH]n1 | 9.06
46 | CCCCn1c(N)c(N(CCOC)C(=O)COC(=O)c2ccccc2OCC)c(=O)[nH]c1=O | 12.2
47 | COc1ccc(OC)c(NC(=O)c2cccc(S(=O)(=O)N3CCN(C(C)=O)CC3)c2)c1 | 9.14
48 | COC(=O)c1c(NC(=O)C2CCCCC2)sc2c1CC(C)(C)NC2(C)C | 7.9
49 | Cc1cccnc1NC(=O)c1sc2ccccc2c1Cl | 9.67
50 | Cc1ccc(-c2[nH]ncc2CN2CCN(C(=O)c3cccs3)CC2)cc1C | -4.17
51 | CN(C)c1nc(N)nc(CSc2n[nH]c(-c3ccccc3)n2)n1 | 6.32
52 | Cc1ccc(CNS(=O)(=O)c2ccc(C(C)(C)C)cc2)n1C | 5.26
53 | O=C1[C@H]2[C@@H](c3ccc(F)cc3)N3C(=O)N(c4cccc(F)c4)C(=O)[C@@]3(Cc3ccccc3)[C@H]2C(=O)N1C1CCCCC1 | 13.1
54 | Cc1ccc(C(=O)NNC(=O)c2nn(-c3ccc(F)cc3)ccc2=O)cc1 | -1.61
55 | O=C(c1ccccc1F)N(Cc1cccs1)C1CCS(=O)(=O)C1 (stereo not shown) | 20.6
56 | O=C(NCCO)/C(=C\c1ccc(Br)cc1)NC(=O)c1cccs1 | 6.96
57 | CN(CCOc1ccccc1)C(=O)CCc1c[nH]c2ccccc12.Cl | 7.06
58 | O=C(NCc1ccccc1)C1=C[C@H](c2csc3ccccc23)C[C@H](OCc2ccc(CO)cc2)O1 | 9.99
